About 490 (0.12%) of roughly 410,000 compounds were called active. Inconclusive means that the source gave no clear call. Such entries were picked first, then a sample of the others. The call rests on the fitted dose curve; in most records, active means well fitted inhibition curve with a large enough effect; inconclusive means small, poorly fitted or top-dose-only effect; inactive means flat fitted curve, though single readings scatter. Potencies beside an inconclusive call are fits to weak or partial responses and may not hold up.
These molecules were tested against pyruvate kinase (Trypanosoma brucei) (UniProt Q57TT1) (assay: qHTS of Trypanosoma Brucei Inhibitors). Details: TbPYK enzyme, Kinase-Glo Plus ATP luminescence, 45 min; series mostly up to 76.8 µM.
Method in brief: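 TbPYK + substrate in 50 mM TEA pH 7.2, 100 mM KCl, 10 mM MgCl2, 0.05% BSA, 0.01% Tween-20; cpd pinned; ADP 130 uM final; 45 min RT; Kinase-Glo Plus 10 min; luminescence endpoint.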
`C=CCn1c(C(CCC(C)C)CC(C)(C)O)n[nH]c1=S` (stereo unspecified) was tested, and the Potency was inconclusive: 17.8 µM [inhibitor, partial curve, poor fit]. For `Cc1c(C(=O)NC2CCCc3ccccc32)oc2ccc(S(=O)(=O)N3CCCC3)cc12` (stereo unspecified), the Potency was inconclusive: 50.1 µM [inhibitor, single point]. In the case of `Cc1cccc(Cn2nnc3c(=O)[nH]c(C4CCCN(C(=O)c5ccc(C(C)(C)C)cc5)C4)nc32)c1` (stereo unspecified), the Potency is reported as “inactive”. For `S=c1[nH]nc(-c2ccccc2)n1/N=C/c1cccc(Cl)c1`, the Potency was inconclusive: 15.8 µM [inhibitor, partial curve, poor fit]. In the case of `Cc1cc(NS(=O)(=O)c2ccc(NC(=O)/C=C/c3c(F)cccc3Cl)cc2)no1`, the Potency is reported as “inactive”. With `CCOC(=O)CNC(=O)CSc1nnc(COc2ccc(Cl)cc2)n1CC` the Potency was inconclusive: 39.8 µM [inhibitor, partial curve, poor fit]. With `COC(=O)C1=C(C(=O)OC)SC2(S1)C(C(=O)OC)=C(C(=O)OC)SC1=C2c2cc(C)ccc2NC1(C)C` the Potency was inconclusive: 5.01 µM [inhibitor, full curve]. With `COc1cccc(-n2c(=S)sc3c(=O)n(-c4ccccc4OC)c(=S)[nH]c32)c1` the Potency was inconclusive: 12.6 µM [inhibitor, partial curve, poor fit]. `COc1ccccc1OCC(=O)Sc1ccc(C)cc1` was tested, and the Potency was inconclusive: 31.6 µM [inhibitor, single point]. `CCNC(=O)N1C(CC(=O)OCC)C(=O)NC2CCCCC21` (stereo unspecified) was tested, and the Potency was inconclusive: 0.891 µM [inhibitor, full curve, poor fit]. With `COc1ccccc1NS(=O)(=O)c1cc(NC(=S)NCCN2CCOCC2)ccc1N1CCOCC1` the Potency was inconclusive: 50.1 µM [inhibitor, single point]. With `COCCn1c(CCc2ccccc2)n[nH]c1=S` the Potency was inconclusive: 15.8 µM [inhibitor, partial curve]. For `CCC(C)(C)NC(=O)c1ccc2c(c1)OCCO2`, the Potency was “inactive”. For `CNC(=S)N1CCC(c2nc3ccccc3s2)CC1`, the Potency was “inactive”. In the case of `O=C(NCc1n[nH]c(=S)n1-c1ccc(F)cc1)c1ccc(S(=O)(=O)N2CCCC2)cc1`, the Potency is reported as inconclusive: 17.8 µM [inhibitor, partial curve]. In the case of `COc1cccc2cc(C(=O)NCc3ccco3)c(=O)oc12`, the Potency is reported as “inactive”. For `Cc1ccc(C(C)C)c(OCC(=O)Nc2ccc(-c3nc4ncccc4o3)cc2C)c1`, the Potency was “inactive”. For `S=c1[nH]nc(-c2cc(-c3ccccc3)n[nH]2)n1/N=C/c1cccc(Cl)c1`, the Potency was inconclusive: 25.1 µM [inhibitor, partial curve, poor fit]. `COc1ccc(C2=CSC3=NCCN23)cc1F` was tested, and the Potency was inconclusive: 28.2 µM [inhibitor, partial curve]. In the case of `O=C(Nc1ccc2c(c1)OCCO2)c1coc2ccccc2c1=O`, the Potency is reported as inconclusive: 35.5 µM [inhibitor, partial curve, poor fit]. In the case of `Nc1nnc(-c2ccccc2Cl)s1`, the Potency is reported as inconclusive: 31.6 µM [inhibitor, partial curve, poor fit]. For `COCCCn1c(=S)[nH]c2sc3c(c2c1=O)CCCC3`, the Potency was inconclusive: 5.62 µM [inhibitor, partial curve, poor fit]. `O=c1cc(-c2ccccc2)oc2cc(O)c(O)c(O)c12` was tested, and the Potency was inconclusive: 35.5 µM [inhibitor, partial curve, poor fit]. For `O=C(CCC(=O)Nc1ccccc1)NNS(=O)(=O)c1ccc(Cl)cc1`, the Potency was inconclusive: 39.8 µM [inhibitor, partial curve, poor fit]. `CC(N)c1csc(Nc2ccc(S(C)(=O)=O)cc2)n1` (stereo unspecified) was tested, and the Potency was “inactive”. `Cc1ccc(Cc2c[nH]c(=S)s2)cc1` was tested, and the Potency was inconclusive: 15.8 µM [inhibitor, partial curve, poor fit]. `O=C(NC(=S)Nc1ccc(S(=O)(=O)N2CCCCC2)cc1)c1cccs1` was tested, and the Potency was “inactive”. For `N#Cc1cc2c(nc1SCc1ccncc1)CCC2`, the Potency was inconclusive: 31.6 µM [inhibitor, partial curve]. For `N#Cc1ccccc1COc1ccc(/C=C/C(=O)O)cc1`, the Potency was inconclusive: 1 µM [inhibitor, full curve]. `COc1ccccc1-n1c(-c2ccccc2)n[nH]c1=S` was tested, and the Potency was active: 6.31 µM. With `Cc1cccc(-n2c(=O)c3c4c(sc3n3c(=S)[nH]nc23)CCC4)c1` the Potency was inconclusive: 14.1 µM [inhibitor, partial curve]. In the case of `O=C1C2C3C=CC(CO)(O3)C2C(=O)N1c1ccccc1-c1ccccc1` (stereo unspecified), the Potency is reported as inconclusive: 31.6 µM [inhibitor, partial curve, poor fit]. In the case of `O=C(c1ccccc1)c1ccc(OCC(O)CN2CCCCC2)cc1` (stereo unspecified), the Potency is reported as “inactive”. In the case of `Cc1ccc(CN2CC(C(=O)NCCC3=CCCCC3)CC2=O)cc1` (stereo unspecified), the Potency is reported as “inactive”. In the case of `O=C(Cc1cccs1)N1CCN(c2nc(-c3ccc(Cl)cc3)cs2)CC1`, the Potency is reported as “inactive”. `O=C1NC2(CCCCC2)C(=O)N1/N=C/c1ccc(O)cc1O` was tested, and the Potency was inconclusive: 28.2 µM [inhibitor, single point]. With `COC(=O)c1c(-c2cccnc2)csc1NC(=O)c1cc(C)on1` the Potency was inconclusive: 14.1 µM [inhibitor, partial curve]. With `c1ccc(-c2csc(-n3cccn3)n2)cc1` the Potency was “inactive”. `Oc1ccc(/C=N/Nc2nccnc2Cl)c(O)c1` was tested, and the Potency was inconclusive: 39.8 µM [inhibitor, partial curve, poor fit]. For `O=C(Nc1ccccc1)c1ccsc1`, the Potency was “inactive”. With `Cc1csc(NC(=O)Cc2coc3cc(C)c(C(C)C)cc23)n1` the Potency was inconclusive: 7.08 µM [inhibitor, partial curve, poor fit]. In the case of `Cn1c(=O)c2c(nc(N3CCOCC3)n2CCCNC2=NCCC2)n(C)c1=O`, the Potency is reported as inconclusive: 1 µM [inhibitor, full curve, poor fit]. In the case of `Cc1nn2c(-c3ccc(S(=O)(=O)N4CCN(C)CC4)o3)nnc2c2ccccc12`, the Potency is reported as “inactive”. In the case of `O=C(C[n+]1cccc2ccccc21)c1ccc([N+](=O)[O-])cc1`, the Potency is reported as inconclusive: 31.6 µM [inhibitor, single point]. With `CC(=O)c1c(C)[nH]c(C(=O)Nc2ccc(C)c(C)c2)c1C` the Potency was “inactive”. In the case of `Cc1ccc(OCc2nnc(SCC(=O)C(C)(C)C)n2Cc2ccco2)cc1`, the Potency is reported as inconclusive: 31.6 µM [inhibitor, single point]. In the case of `COc1cc(N2C(=O)C=CC2=O)ccc1N1C(=O)C=CC1=O`, the Potency is reported as active: 4.47 µM. With `COc1ccc(NC(=O)N2CCc3ccccc32)cc1` the Potency was inconclusive: 39.8 µM [inhibitor, single point]. `Cc1cccnc1NC(=O)CNC(=O)COc1ccccc1` was tested, and the Potency was “inactive”. `CSc1ccc(CN(C)CC(=O)Nc2ccc(NC(C)=O)cc2)cc1` was tested, and the Potency was “inactive”. In the case of `Cc1cc2nc(CCN(Cc3cccnc3)C(=S)Nc3ccc(F)cc3)[nH]c2cc1C`, the Potency is reported as inconclusive: 15.8 µM [inhibitor, partial curve, poor fit]. For `O=C(c1ccco1)N1CCN(CCCCOc2cccc3ccccc23)CC1`, the Potency was “inactive”. In the case of `c1ccc(OCc2nnc3sc(C4COc5ccccc5O4)nn23)cc1` (stereo unspecified), the Potency is reported as inconclusive: 14.1 µM [inhibitor, partial curve]. `Cc1ccc(S(=O)(=O)/N=C2/NC(=O)/C(=C/c3cc([N+](=O)[O-])ccc3O)S2)cc1` was tested, and the Potency was inconclusive: 28.2 µM [inhibitor, partial curve, poor fit]. For `O=C(c1ccc2ncsc2c1)N1CCN(c2ccc(O)cc2)CC1`, the Potency was inconclusive: 35.5 µM [inhibitor, partial curve, poor fit]. For `O=S(=O)(NCc1ccc(F)cc1)c1cccc(S(=O)(=O)N2CCOCC2)c1`, the Potency was inconclusive: 50.1 µM [inhibitor, single point]. With `CC1(C)CC(=O)C(N=Nc2ccc(Cl)cc2)=C(O)C1` the Potency was “inactive”. For `O=C(Nc1ccc(Br)cc1F)c1ccc2nsnc2c1`, the Potency was inconclusive: 50.1 µM [inhibitor, single point]. In the case of `CC(C)n1c(=S)[nH]c2ccccc21`, the Potency is reported as inconclusive: 2.82 µM [inhibitor, full curve, poor fit]. `O=C(CCSc1ccc(Cl)cc1)N1CCN(c2ccc(O)cc2)CC1` was tested, and the Potency was inconclusive: 31.6 µM [inhibitor, partial curve, poor fit]. `CC(C)c1ccc(C(=O)CSc2ncn[nH]2)cc1` was tested, and the Potency was inconclusive: 35.5 µM [inhibitor, single point]. `CCOc1cc(C=C2C(=O)NC(=O)NC2=O)ccc1OS(=O)(=O)c1ccccc1` was tested, and the Potency was inconclusive: 28.2 µM [inhibitor, partial curve, poor fit]. For `COc1cccc(/C=N/NC(=O)CSCC(=O)Nc2ccccc2)c1O`, the Potency was “inactive”. In the case of `S=c1[nH]nc(C2CCCCC2)n1/N=C/c1ccccc1`, the Potency is reported as inconclusive: 14.1 µM [inhibitor, partial curve]. For `Cc1cc(C)cc(OCC(=O)OCCN2C(=O)c3ccccc3C2=O)c1`, the Potency was inconclusive: 15.8 µM [inhibitor, partial curve]. For `Clc1ccccc1OCc1nc(-c2ccncc2)no1`, the Potency was inconclusive: 35.5 µM [inhibitor, partial curve, poor fit]. `O=C(c1cc2cc(Cl)ccc2[nH]1)N1CCC2(CC1)OCCO2` was tested, and the Potency was “inactive”. `CCOc1cccc(N2C(=O)/C(=C/c3ccco3)C(=O)NC2=S)c1` was tested, and the Potency was inconclusive: 31.6 µM [inhibitor, single point]. With `O=C1NC(=O)C(=Cc2csc3ccccc23)C(=O)N1` the Potency was inconclusive: 22.4 µM [inhibitor, partial curve]. In the case of `O=C1C=CC(=O)N1c1ccc(N2CCCCC2)cc1`, the Potency is reported as active: 10 µM. `COc1ccc(NC(=O)C2=C(C)Nc3nc(SCc4ccccc4)nn3C2c2cc(OC)ccc2OC)cc1` (stereo unspecified) was tested, and the Potency was “inactive”.
Further: nearly all actives have a fitted effect of over 50% in size.
Potency means the concentration at half of the fitted maximal effect; tags describe the fitted curve by direction and shape.
